According to the supplement of paper PMC9334596:
“And” between values parts separate entries of the source, which are not always exact repeats. Equal values may be shown once. In all, about 5,300 compounds were measured (“PER2::LUC luminescence relative to vehicle control”: median about 0.96, highest 2% from about 1.3 on). Some of the results follow.

Test system: mPer2Luc MEF
Assay: PER2::LUC luminescence relative to vehicle control (fold of vehicle); higher = higher PER2::LUC reporter signal
Details: 10 µM
Method in brief: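 Mouse embryonic fibroblasts carrying the mPer2Luc reporter were seeded at ~3000 cells per well in 384-well plates, 48 h before compounds from commercial libraries were added at 10 μM. Cells were grown in DMEM with 10% FBS at 37 °C and 5% CO2. Luminescence was read with the ONE-Glo luciferase assay system 24 h and 30 h after treatment, followed by an alamarBlue viability assay. The value is PER2::LUC luminescence as fold of vehicle control.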

Row | Structure (SMILES) | PER2::LUC luminescence (time after treatment 24 h) | PER2::LUC luminescence (time after treatment 30 h)
1 | CCCC[C@@H](C=O)NC(=O)[C@H](CC(C)C)NC(=O)OCc1ccccc1 | 1.21 | 1.18
2 | O=C(CCCN1CC=C(n2c(=O)[nH]c3ccccc32)CC1)c1ccc(F)cc1 | 0.97 | 1.02
3 | Cc1ccc(CCCO)c(NCc2ccc3nc(NCCCN4CCOCC4)n(Cc4nc(C)ccc4O)c3c2)c1 | 0.711 | 0.678
4 | CCN(CC)CCNC(=O)c1cc(S(C)(=O)=O)ccc1OC | 0.984 | 0.88
5 | CCO[C@@H]1OC(=O)C[C@@H]1NC(=O)[C@@H]1CCCN1C(=O)[C@@H](NC(=O)c1ccc(N)c(Cl)c1)C(C)(C)C | 1.07 | 1.1
6 | Oc1c(I)cc(I)c2cccnc12 | 0.941 | 0.965
7 | C[C@@]1(F)[C@H](O)[C@@H](CO)O[C@H]1n1ccc(N)nc1=O | 1.1 | 1.1
8 | CN(C)c1ccc(C(=O)NCCCCCCC(=O)NO)cc1 | 0.893 | 0.924
9 | CC(=O)O[C@H]1CC[C@@]2(C)[C@H](CC[C@@H]3[C@@H]2CC[C@]2(C)[C@@H]4[C@H](C[C@@H]32)O[C@]2(CC[C@@H](C)CO2)[C@H]4C)C1 | 0.986 | 0.936
10 | C#CCN(C)Cc1ccccc1 | 0.93 and 0.871 | 0.955 and 0.95
11 | O=c1[nH]c2ccccc2c2ccccc12 | 1.19 | 0.972
12 | COc1ccc(-c2oc3c(CC=C(C)C)c(O[C@@H]4O[C@H](CO)[C@@H](O)[C@H](O)[C@H]4O)cc(O)c3c(=O)c2O[C@@H]2O[C@@H](C)[C@H](O)[C@@H](O)[C@H]2O)cc1 | 1.05 | 1.1
13 | C[C@H]1[C@@H](O)O[C@@H]2O[C@@]3(C)CC[C@H]4[C@H](C)CC[C@@H]1[C@@]24OO3 | 0.615 | 0.646
14 | O=C(O)/C=C/c1c[nH]c2ccccc12 | 1.01 | 1.02
15 | CCn1cc(C(=O)O)c(=O)c2ccc(C)nc21 | 0.874 | 0.809
16 | COc1ccc2cc(CCC(C)=O)ccc2c1 | 1.75 | 1.7
17 | O=C(O)CCC(=O)OC[C@@H](NC(=O)C(Cl)Cl)[C@H](O)c1ccc([N+](=O)[O-])cc1 | 0.955 | 0.963
18 | Cc1cccc(/C=C/c2ccccc2)n1 | 1.35 | 1.16
19 | CCCCCC(C)N (stereo not given) | 1.02 and 0.857 | 1.04 and 0.798
20 | CCN(Cc1ccncc1)C(=O)C(CO)c1ccccc1 (stereo not given) | 1.04 | 1.05
21 | Cc1nc(Nc2ccc(F)cc2)nc(N2CCc3ccccc3C2C)c1C (stereo not given) | 0.906 | 0.868
22 | O=C(NCCNCC(O)COc1ccc(O)cc1)N1CCOCC1 (stereo not given) | 0.988 | 0.94

Row | Structure (SMILES) | PER2::LUC luminescence (time after treatment 24 h) | PER2::LUC luminescence (time after treatment 30 h)
23 | N=C(N)c1ccccc1 | 1.03 | 0.98
24 | CC(=O)O/N=C1\C(=O)N(Cc2cc(Cl)ccc2Cl)c2ccc(Cl)cc21 | 1.08 | 1.08
25 | Cc1ncc([N+](=O)[O-])n1CCO | 1.26 | 0.959
26 | CCN(CC)CC#CCOC(=O)C(O)(c1ccccc1)C1CCCCC1 (stereo not given) | 1.02 and 0.831 | 0.799 and 0.895
27 | OC(CCN1CCCCC1)(c1ccccc1)C1CC2C=CC1C2 (stereo not given) | 0.9 and 0.774 and 0.685 | 0.906 and 0.687 and 0.665
28 | CC(C)CCC[C@@H](C)[C@H]1CC[C@H]2[C@@H]3CC=C4CC(=O)CC[C@]4(C)[C@H]3CC[C@]12C | 1.42 | 1.09
29 | CN1C2CCCC1CC(NC(=O)c1nn(C)c3ccccc13)C2 (stereo not given) | 0.865 | 0.969
30 | CC(C)N1CCN(c2ccc(OCC3COC(Cn4cncn4)(c4ccc(Cl)cc4Cl)O3)cc2)CC1 (stereo not given) | 0.8 | 0.809
31 | O=C(N/N=C/c1ccc(O)c(O)c1)c1cc2ccccc2cc1O | 0.794 | 1.04
32 | COc1ccc(SC(=O)N[C@@H](CCC(=O)O)C(=O)O)cc1 | 0.852 | 0.909
33 | N=C(N)SCc1ccc(CSC(=N)N)s1 | 1.01 and 0.976 | 1.01 and 0.977
34 | C=CC[C@@H]1/C=C(\C)C[C@H](C)C[C@H](OC)[C@H]2O[C@@](O)(C(=O)C(=O)N3CCCC[C@H]3C(=O)O[C@H](/C(C)=C/[C@@H]3CC[C@@H](O)[C@H](OC)C3)[C@H](C)[C@@H](O)CC1=O)[C@H](C)C[C@@H]2OC | 0.918 | 1.03
35 | CC(=O)OC1CCC23CC1(C)CCC2C(C)(C)CC3OC(C)=O (stereo not given) | 0.96 | 0.934
36 | COc1ccc2[nH]cc(CCNC(C)=O)c2c1 | 1.03 and 0.466 | 1.03 and 0.798
37 | CC(C)(C)[Si](C)(C)Oc1ccc2oc(=O)c3c(c2c1)CCCN3 | 1.14 | 1.15
38 | CCCCC/C=C\C[C@@H](O)/C=C/c1cccc(C[C@@H](O)CCCCO)n1 | 1.07 | 0.841
39 | NC[C@H]1O[C@H](O[C@H]2[C@H](O[C@@H]3O[C@H](CO)[C@@H](O)[C@H]3O)[C@@H](O)[C@H](N)C[C@@H]2N)[C@H](N)[C@@H](O)[C@@H]1O | 0.887 | 0.894
40 | O=Nc1c(-c2c(O)[nH]c3ccccc23)[nH]c2ccccc12 | 1.72 | 2.02
41 | COCc1c(C(C)C)nc(C(C)C)c(/C=C/[C@@H](O)C[C@@H](O)CC(=O)O)c1-c1ccc(F)cc1 | 0.305 | 0.274
42 | Oc1nc2cc(Cl)c(Cl)cc2nc1O | 0.684 | 0.69
43 | COc1ccc(C(=O)NCc2cccnc2)cc1C(=O)NCc1cccnc1 | 0.916 | 0.901
44 | Cc1cc([N+](=O)[O-])ccc1NS(=O)(=O)c1cc(Cl)ccc1Cl | 0.955 and 0.797 | 0.774 and 0.762

Row | Structure (SMILES) | PER2::LUC luminescence (time after treatment 24 h) | PER2::LUC luminescence (time after treatment 30 h)
45 | CC(C)c1cccc(C(C)C)c1N1C(=O)c2ccc(O)cc2C1=O | 1.11 | 1.08
46 | CC1(C)CCC[C@](C)([C@H]2CC[C@]3(C)[C@@H]2[C@H](O)C[C@@H]2[C@@]4(C)CC[C@H](O)C(C)(C)[C@@H]4CC[C@]23C)O1 | 1.02 | 1.02
47 | Nc1nc(=O)c2nc(CNc3ccc(C(=O)N[C@@H](CCC(=O)O)C(=O)O)cc3)cnc2[nH]1 | 0.904 | 0.734
48 | CC(=O)N[C@@H](CC(C)C)C(=O)O | 1.07 | 0.958
49 | O=C([O-])[C@H]1/C(=C/CO)O[C@@H]2CC(=O)N21.[Li+] | 1 | 0.949
50 | CC(C)(C)Sc1c(CC(C)(C)C(=O)O)n(Cc2ccc(Cl)cc2)c2ccc(OCc3ccc4ccccc4n3)cc12 | 1 | 0.992
51 | OCc1cc2c(cn1)[nH]c1ccccc12 | 0.851 | 0.873
52 | O=C(NCCS(=O)(=O)c1ccc(C(F)(F)F)cn1)c1ccc(Cl)cc1 | 1.04 | 1.06
53 | C=C1CC[C@H](O)C/C1=C/C=C1\CCC[C@]2(C)[C@@H]([C@H](C)CCCC(C)(C)O)CC[C@@H]12 | 0.892 and 0.798 | 0.882 and 0.845
54 | CC(C)CC(=O)Nc1n[nH]c2c1CN(C(=O)C1CCN(C)CC1)C2(C)C | 0.748 | 0.593
55 | COc1c2ccoc2nc2c(OC)c(OCC(O)C(C)(C)O)ccc12 (stereo not given) | 1.1 | 1.05
56 | CN1CCc2cc3c(cc2C(=O)Cc2ccc4c(c2C1)OCO4)OCO3 | 1.01 | 0.95
57 | CC(=O)N1c2ccc(-c3ccc(C(=O)O)cc3)cc2[C@H](Nc2ccc(Cl)cc2)C[C@@H]1C | 0.113 | 0.084
58 | Oc1ccccc1NCc1ccccn1 | 0.921 | 1.05
59 | CC[C@H]1OC(=O)[C@H](C)[C@@H](O[C@H]2C[C@@](C)(OC)[C@@H](O)[C@H](C)O2)[C@H](C)[C@@H](O[C@@H]2O[C@H](C)C[C@H](N(C)C)[C@H]2O)[C@](C)(O)C[C@@H](C)/C(=N\OCOCCOC)[C@H](C)[C@@H](O)[C@]1(C)O | 0.667 | 1.01
60 | CCc1cccc(N(C)C(=N)Nc2cccc3ccccc23)c1 | 0.746 | 0.808
61 | Nc1nc(F)nc2c1ncn2[C@@H]1O[C@H](CO)[C@@H](O)[C@@H]1O | 0.688 | 0.502
62 | CC1(C)CCC[C@](C)([C@H]2CC[C@]3(C)[C@@H]2[C@H](O)C[C@@H]2[C@@]4(C)CC[C@H](O)C(C)(C)[C@@H]4[C@@H](O)C[C@]23C)O1 | 0.965 | 0.95
63 | CSc1ccccc1NC(C)=O | 0.972 | 0.93
64 | O=C1CN2Cc3c(ccc(Cl)c3Cl)N=C2N1 | 1.2 | 1.17
65 | COc1ccc(C2=N[C@@H](c3ccc(Cl)cc3)[C@@H](c3ccc(Cl)cc3)N2C(=O)N2CCNC(=O)C2)c(OC(C)C)c1 (racemic) | 0.971 and 1.06 and 0.903 | 0.948 and 0.818 and 0.649
66 | CC(N)(C(=O)O)c1ccc(C(=O)O)cc1 (racemic) | 0.971 | 0.694

Row | Structure (SMILES) | PER2::LUC luminescence (time after treatment 24 h) | PER2::LUC luminescence (time after treatment 30 h)
67 | CC(C)NCC(O)COc1ccc(COCCOC(C)C)cc1 (stereo not given) | 1.04 and 0.945 | 1.04 and 1.01
68 | CN(C)Cc1c(C(=O)NCCOc2ccc(C(=O)NO)cc2)oc2ccccc12 | 0.288 | 0.586
69 | COc1ccc(-c2cc(=O)c3c(O)cc(O)cc3o2)cc1O | 0.933 | 1.03
70 | COc1cc(S(=O)(=O)O)ccc1O | 1.1 | 0.889
71 | CC(=O)OC[C@@]1(O)C[C@@]23CC[C@@H]4c5ccoc5CC[C@@]4(C)[C@@H]2CC[C@@H]1C3 | 1.05 | 1.06
72 | CN1CC[C@H](c2c(O)cc(O)c3c(=O)cc(-c4ccccc4Cl)oc23)[C@H](O)C1 | 0.967 | 0.942
73 | CC(N)=O | 1.03 | 1.1
74 | COc1cc2c(cc1CC=C(C)C)C(=O)C[C@@H](c1ccc(O)cc1)O2 | 0.899 | 0.955
75 | Nc1nc(Cl)nc2c1ncn2[C@@H]1O[C@H](CO)[C@@H](O)[C@@H]1F | 0.453 | 0.367
76 | COc1cc2ccc(=O)oc2c(OC)c1OC | 0.926 | 0.926
77 | C[C@@H](N)[C@H]1CC[C@H](C(=O)Nc2ccncc2)CC1 | 1.04 and 1.16 | 1.04 and 1.27
78 | c1cnc2cc3c(cc2n1)[C@@H]1CNC[C@H]3C1 | 0.967 | 1.01
79 | NC[C@H]1O[C@@H](n2cnc3c(N)ncnc32)[C@H](O)[C@@H]1O | 0.981 | 0.975
80 | CCCCCN(CCCOC)C(=O)C(CCC(=O)O)NC(=O)c1ccc(Cl)c(Cl)c1 (stereo not given) | 1.01 | 0.935
81 | COC(=O)CC1CC(c2ccc(O)cc2)=NO1 (stereo not given) | 1.51 | 1.75
82 | CC(=O)NN(Cc1ccc(N)cc1)c1ncnc2c1ncn2[C@@H]1O[C@H](CO)[C@@H](O)[C@H]1O | 1.03 | 0.913
83 | Cc1ccccc1N=C(N)Nc1ccccc1C | 1.04 | 0.961
84 | CC(=O)OCC(COC(C)=O)OC(C)=O | 0.917 | 1.16
85 | O=c1cc(-c2ccc(O)cc2)oc2cc(O)cc(O)c12 | 0.595 | 0.545
